# The list shows a part of the results.
# Columns and labels:
# Assay in all cases: glycan array binding signal (z-score within array); higher = stronger binding
# Conditions in all cases: glycan notation: IUPAC condensed, linker removed; mutation: H84T
# [1] = target: Gal(a1-3)Gal(b1-4)GlcNAc
# In short: (§1)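 Glycan array data were curated from 3228 arrays in the Consortium for Functional Glycomics database and kept only where the protein sequence was available. Glycan names were converted to IUPAC-condensed notation, and columns mapping to the same glycan were averaged. The binding signal is a within-array Z-score, averaged across arrays of the same protein sequence at different concentrations or buffers and across linkers. Negative Z-scores can be read as non-binding.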
# [2] = target: Gal(a1-3)Gal(b1-4)GlcNAc(b1-2)Man
# In short: as §1
# [3] = target: Gal(a1-3)Gal(b1-4)GlcNAc(b1-2)Man(a1-3)[Gal(a1-3)Gal(b1-4)GlcNAc(b1-2)Man(a1-6)]Man(b1-4)GlcNAc(b1-4)GlcNAc
# In short: as §1
# [4] = target: Gal(a1-3)Gal(b1-4)GlcNAc(b1-3)GalNAc
# In short: as §1
# [5] = target: Gal(a1-3)Gal(b1-4)GlcNAc(b1-6)GalNAc
# In short: as §1
# [6] = target: Gal(a1-3)Gal(b1-4)[Fuc(a1-3)]GlcNAc
# In short: as §1
# [7] = target: Gal(a1-3)Gal(b1-4)[Fuc(a1-3)]GlcNAc(b1-2)Man(a1-3)[Gal(a1-3)Gal(b1-4)[Fuc(a1-3)]GlcNAc(b1-2)Man(a1-6)]Man(b1-4)GlcNAc(b1-4)GlcNAc
# In short: as §1
# [8] = target: Gal(a1-3)GalNAc
# In short: as §1
# [9] = target: Gal(a1-3)[Gal(a1-4)]Gal(b1-4)GlcNAc
# In short: as §1
# [10] = target: Gal(a1-4)Gal(b1-3)GlcNAc(b1-2)Man(a1-3)[Gal(a1-4)Gal(b1-3)GlcNAc(b1-2)Man(a1-6)]Man(b1-4)GlcNAc(b1-4)GlcNAc
# In short: as §1
# [11] = target: Gal(a1-4)Gal(b1-4)Glc
# In short: as §1
# [12] = target: Gal(a1-4)Gal(b1-4)GlcNAc
# In short: as §1
# [13] = target: Gal(a1-4)Gal(b1-4)GlcNAc(b1-2)Man(a1-3)[Gal(a1-4)Gal(b1-4)GlcNAc(b1-2)Man(a1-6)]Man(b1-4)GlcNAc(b1-4)GlcNAc
# In short: as §1
# [14] = target: Gal(a1-4)Gal(b1-4)GlcNAc(b1-3)Gal(b1-4)Glc
# In short: as §1
# [15] = target: Gal(a1-4)GlcNAc
# In short: as §1
# [16] = target: Gal(a1-6)Glc
# In short: as §1
# [17] = target: Gal(b1-2)Gal
# In short: as §1
# [18] = target: Gal(b1-3)Gal
# In short: as §1
# [19] = target: Gal(b1-3)Gal(b1-4)GlcNAc
# In short: as §1
# [20] = target: Gal(b1-3)GalNAc
# In short: as §1
# [21] = target: Gal(b1-3)GalNAc(a1-3)[Fuc(a1-2)]Gal(b1-4)Glc
# In short: as §1
# [22] = target: Gal(b1-3)GalNAc(a1-3)[Fuc(a1-2)]Gal(b1-4)GlcNAc
# In short: as §1
# [23] = target: Gal(b1-3)GalNAc(b1-3)Gal
# In short: as §1
# [24] = target: Gal(b1-3)GalNAc(b1-3)Gal(a1-4)Gal(b1-4)Glc
# In short: as §1
# [25] = target: Gal(b1-3)GalNAc(b1-4)Gal(b1-4)Glc
# In short: as §1
# [26] = target: Gal(b1-3)GalNAc(b1-4)[Neu5Ac(a2-3)]Gal(b1-4)Glc
# In short: as §1
# [27] = target: Gal(b1-3)GlcNAc
# In short: as §1
# [28] = target: Gal(b1-3)GlcNAc(a1-3)Gal(b1-4)GlcNAc
# In short: as §1
# [29] = target: Gal(b1-3)GlcNAc(a1-6)Gal(b1-4)GlcNAc
# In short: as §1
# [30] = target: Gal(b1-3)GlcNAc(b1-2)Man
# In short: as §1
# [31] = target: Gal(b1-3)GlcNAc(b1-2)Man(a1-3)[Gal(b1-3)GlcNAc(b1-2)Man(a1-6)]Man(b1-4)GlcNAc(b1-4)GlcNAc
# In short: as §1
# [32] = target: Gal(b1-3)GlcNAc(b1-2)Man(a1-3)[Gal(b1-3)GlcNAc(b1-2)Man(a1-6)]Man(b1-4)GlcNAc(b1-4)[Fuc(a1-6)]GlcNAc
# In short: as §1
# [33] = target: Gal(b1-3)GlcNAc(b1-2)Man(a1-3)[GlcNAc(b1-4)][Gal(b1-3)GlcNAc(b1-2)Man(a1-6)]Man(b1-4)GlcNAc(b1-4)GlcNAc
# In short: as §1
# [34] = target: Gal(b1-3)GlcNAc(b1-2)[Gal(b1-3)GlcNAc(b1-6)]Man(a1-6)[Gal(b1-3)GlcNAc(b1-2)Man(a1-3)]Man(b1-4)GlcNAc(b1-4)GlcNAc
# In short: as §1
# [35] = target: Gal(b1-3)GlcNAc(b1-3)Gal(b1-3)GlcNAc
# In short: as §1
# [36] = target: Gal(b1-3)GlcNAc(b1-3)Gal(b1-4)Glc
# In short: as §1
# [37] = target: Gal(b1-3)GlcNAc(b1-3)Gal(b1-4)GlcNAc
# In short: as §1
# [38] = target: Gal(b1-3)GlcNAc(b1-3)Gal(b1-4)GlcNAc(b1-2)Man(a1-3)[Gal(b1-3)GlcNAc(b1-3)Gal(b1-4)GlcNAc(b1-2)Man(a1-6)]Man(b1-4)GlcNAc(b1-4)GlcNAc
# In short: as §1
# [39] = target: Gal(b1-3)GlcNAc(b1-3)Gal(b1-4)GlcNAc(b1-2)[Gal(b1-3)GlcNAc(b1-3)Gal(b1-4)GlcNAc(b1-6)]Man(a1-6)[Gal(b1-3)GlcNAc(b1-3)Gal(b1-4)GlcNAc(b1-2)Man(a1-3)]Man(b1-4)GlcNAc(b1-4)[Fuc(a1-6)]GlcNAc
# In short: as §1
# [40] = target: Gal(b1-3)GlcNAc(b1-3)Gal(b1-4)GlcNAc(b1-3)Gal(b1-4)GlcNAc(b1-2)[Gal(b1-3)GlcNAc(b1-3)Gal(b1-4)GlcNAc(b1-3)Gal(b1-4)GlcNAc(b1-6)]Man(a1-6)[Gal(b1-3)GlcNAc(b1-3)Gal(b1-4)GlcNAc(b1-3)Gal(b1-4)GlcNAc(b1-2)Man(a1-3)]Man(b1-4)GlcNAc(b1-4)[Fuc(a1-6)]GlcNAc
# In short: as §1
# [41] = target: Gal(b1-3)GlcNAc(b1-3)Gal(b1-4)GlcNAc(b1-6)[Gal(b1-3)GlcNAc(b1-3)]Gal(b1-4)Glc
# In short: as §1
# [42] = target: Gal(b1-3)GlcNAc(b1-3)Gal(b1-4)[Fuc(a1-3)]GlcNAc
# In short: as §1
# [43] = target: Gal(b1-3)GlcNAc(b1-3)Gal(b1-4)[Fuc(a1-3)]GlcNAc(b1-6)[Gal(b1-3)GlcNAc(b1-3)]Gal(b1-4)Glc
# In short: as §1
# [44] = target: Gal(b1-3)GlcNAc(b1-3)GalNAc
# In short: as §1
# [45] = target: Gal(b1-3)GlcNAc(b1-6)Gal(b1-4)GlcNAc
# In short: as §1
binder,measurement,setting,value
Banana lectin (Musa acuminata) (protein) MNGAIKVGAWGGNGGSAFDMGPAYRIISVKIFSGDVVDGVDVTFTYYGKTETRHYGGSGGTPHEIVLQEGEYLVGMAGEVANYTGAVVLGKLGFSTNKKAYGPFGNTGGTPFSLPIAAGKISGFFGRGGKFLDAIGVYLEPLEHHHHHH,glycan array binding signal (z-score),[1],-0.199
same,glycan array binding signal (z-score),[2],-0.181
same,glycan array binding signal (z-score),[3],-0.171
same,glycan array binding signal (z-score),[4],-0.183
same,glycan array binding signal (z-score),[5],-0.173
same,glycan array binding signal (z-score),[6],-0.185
same,glycan array binding signal (z-score),[7],-0.095
same,glycan array binding signal (z-score),[8],-0.171
same,glycan array binding signal (z-score),[9],-0.181
same,glycan array binding signal (z-score),[10],0.301
same,glycan array binding signal (z-score),[11],-0.178
same,glycan array binding signal (z-score),[12],-0.178
same,glycan array binding signal (z-score),[13],-0.13
same,glycan array binding signal (z-score),[14],-0.179
same,glycan array binding signal (z-score),[15],-0.156
same,glycan array binding signal (z-score),[16],-0.199
same,glycan array binding signal (z-score),[17],-0.197
same,glycan array binding signal (z-score),[18],-0.164
same,glycan array binding signal (z-score),[19],-0.17
same,glycan array binding signal (z-score),[20],-0.188
same,glycan array binding signal (z-score),[21],-0.19
same,glycan array binding signal (z-score),[22],-0.213
same,glycan array binding signal (z-score),[23],-0.166
same,glycan array binding signal (z-score),[24],-0.164
same,glycan array binding signal (z-score),[25],-0.163
same,glycan array binding signal (z-score),[26],-0.147
same,glycan array binding signal (z-score),[27],-0.182
same,glycan array binding signal (z-score),[28],1.72
same,glycan array binding signal (z-score),[29],-0.108
same,glycan array binding signal (z-score),[30],-0.15
same,glycan array binding signal (z-score),[31],0.18
same,glycan array binding signal (z-score),[32],-0.114
same,glycan array binding signal (z-score),[33],0.873
same,glycan array binding signal (z-score),[34],0.324
same,glycan array binding signal (z-score),[35],-0.182
same,glycan array binding signal (z-score),[36],-0.157
same,glycan array binding signal (z-score),[37],-0.168
same,glycan array binding signal (z-score),[38],-0.111
same,glycan array binding signal (z-score),[39],0.665
same,glycan array binding signal (z-score),[40],0.571
same,glycan array binding signal (z-score),[41],-0.16
same,glycan array binding signal (z-score),[42],-0.181
same,glycan array binding signal (z-score),[43],-0.191
same,glycan array binding signal (z-score),[44],-0.179
same,glycan array binding signal (z-score),[45],-0.188
